In article PMC5892938:
The other results are listed elsewhere or left out. At the low end of the ranking, values are background and their order means little.

Target: GST-SBP-SLBP (stem-loop binding protein) (UniProt Q14493)
Assay: targeted RNA Bind-n-Seq;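 also: DESeq read counts versus GST-SBP nonspecific binding control pulldown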
Settings: RBNS binding buffer: 25 mM Tris pH 7.5, 150 mM KCl, 3 mM MgCl2, 0.1% Tween, 0.5 mg/mL BSA, 1 mM DTT; 27 nM protein, 750 pM RNA pool; temperature not stated; high values mean tight binding

| Sequence | binding signal (log2 fold change) |
| --- | --- |
| GGUCACGUCUCAAUCAACUCAAUCUCAGGAGUUUACUCCUGCUUACUCAACAGCUCGCAGUCAAG | 0.163 |
| GGUCACGUCUCAAUCAACUCAAGUCCAGGAGUUUACUCCUGCUUAUUCAACAGCUCGCAGUCAAG | 0.173 |
| GGUCACGUCUCAAUCAACUCAAUCUCAGGAGUUUACUCCUGCAUUUUCAACAGCUCGCAGUCAAG | 0.136 |
| GGUCACGUCUCAAUCAACUCAUCCUCAGGAGUUUUCUCCUGCAUAGUCAACAGCUCGCAGUCAAG | 0.195 |
| GGUCACGUCUCAAUCAACUCCUUCGAGGGGGGGAAAACCCCUUUACCCUCAAUAUCAACAGCUCGCAGUCAAG | -0.442 |
| GGUCACGUCUCAAUCAACUCUUUCUCCAGGGAAAACCCUGGUAAACUCAACAGCUCGCAGUCAAG | 0.033 |
| GGUCACGUCUCAAUCAACUCAGUCCCAGGAGUUUUCUCCUGCUAAUUCAACAGCUCGCAGUCAAG | 0.335 |
| GGUCACGUCUCAAUCAACUCUUCUCCCAGGGAAAUCCCUGGUUAUCUCAACAGCUCGCAGUCAAG | -0.202 |
| GGUCACGUCUCAAUCAACUCACAAGAGGGGGGGAAAACCCCUUUGCCCUCAACCUCAACAGCUCGCAGUCAAG | -0.199 |
| GGUCACGUCUCAAUCAACUCUUUCGAGGGGGGGAAAACCCCUUUGCCCUCACAUUCAACAGCUCGCAGUCAAG | 0.257 |
| GGUCACGUCUCAAUCAACUCAUCGUCCAGGGAAAACCCUGGUUAAUUCAACAGCUCGCAGUCAAG | 0.168 |
| GGUCACGUCUCAAUCAACUCAAUCUCCAGGGAAAGCCCUGGCAAUUUCAACAGCUCGCAGUCAAG | -0.238 |
| GGUCACGUCUCAAUCAACUCUAUCCCAGGAGUUUCCUCCUGCUAUCUCAACAGCUCGCAGUCAAG | -0.00324 |
| GGUCACGUCUCAAUCAACUCUUACGAGGGGGGGAAAACCCCUUUGCCCUCAACAUCAACAGCUCGCAGUCAAG | 0.326 |
| GGUCACGUCUCAAUCAACUCAUCGCCCAGGGAAAACCCUGGUAUUCUCAACAGCUCGCAGUCAAG | 0.0168 |
| GGUCACGUCUCAAUCAACUCUUCCGCAGGAGUUUUCUCCUGGUAAUUCAACAGCUCGCAGUCAAG | 0.0966 |
| GGUCACGUCUCAAUCAACUCAUCGUCAGGAGUUUACUCCUGUUUACUCAACAGCUCGCAGUCAAG | -0.0696 |
| GGUCACGUCUCAAUCAACUCUUCUCCCAGGGAAAACCCUGGCUAAUUCAACAGCUCGCAGUCAAG | 0.168 |
| GGUCACGUCUCAAUCAACUCAACUCCAGGAGUUUCCUCCUGCUUUUUCAACAGCUCGCAGUCAAG | 0.0819 |
| GGUCACGUCUCAAUCAACUCUAUUUCCAGGGAAAACCCUGGCUUACUCAACAGCUCGCAGUCAAG | -0.0304 |
| GGUCACGUCUCAAUCAACUCUACGCCAGGAGUUUUCUCCUGUAUUCUCAACAGCUCGCAGUCAAG | -0.253 |
| GGUCACGUCUCAAUCAACUCAUCUCCCAGGGAAAACCCUGGCAAUUUCAACAGCUCGCAGUCAAG | 0.243 |
| GGUCACGUCUCAAUCAACUCAUUUCCAGGAGUUUACUCCUGCUUUCUCAACAGCUCGCAGUCAAG | 0.235 |
| GGUCACGUCUCAAUCAACUCAAUUUCAGGAGUUUUCUCCUGUAUAUUCAACAGCUCGCAGUCAAG | -0.0269 |
| GGUCACGUCUCAAUCAACUCUUCUUCCAGGGAAAUCCCUGGUUAAUUCAACAGCUCGCAGUCAAG | 0.0744 |

| Sequence | binding signal (log2 fold change) |
| --- | --- |
| GGUCACGUCUCAAUCAACUCAACAGAGGGGGGGAAAACCCCUUUACCCUCAAACUCAACAGCUCGCAGUCAAG | -0.181 |
| GGUCACGUCUCAAUCAACUCCACGGAGGGGGGGAAAACCCCUUUACCCUCAACAUCAACAGCUCGCAGUCAAG | 0.168 |
| GGUCACGUCUCAAUCAACUCAUCGGAGGGGGGGAAAACCCCUUUACCCUCAAACUCAACAGCUCGCAGUCAAG | 0.199 |
| GGUCACGUCUCAAUCAACUCAUCGCCCAGGGAAAACCCUGGUAAUCUCAACAGCUCGCAGUCAAG | -0.00718 |
| GGUCACGUCUCAAUCAACUCUCACGAGGGGGGGAAAACCCCUUUACCCUCUAUCUCAACAGCUCGCAGUCAAG | 0.217 |
| GGUCACGUCUCAAUCAACUCUUUUCCCAGGGAAAUCCCUGGCAAUGUCAACAGCUCGCAGUCAAG | -0.105 |
| GGUCACGUCUCAAUCAACUCAAUUCCAGGAGUUUCCUCCUGUAAACUCAACAGCUCGCAGUCAAG | 0.102 |
| GGUCACGUCUCAAUCAACUCUACUCCCAGGGAAAACCCUGGUAAUCUCAACAGCUCGCAGUCAAG | 0.015 |
| GGUCACGUCUCAAUCAACUCCUACGAGGGGGGGAAAACCCCUUUACCCUCAUCCUCAACAGCUCGCAGUCAAG | 0.0918 |
| GGUCACGUCUCAAUCAACUCUUUUUCAGGAGUUUGCUCCUGCAUUUUCAACAGCUCGCAGUCAAG | -0.0711 |
| GGUCACGUCUCAAUCAACUCAGUCUCCAGGGAAACCCCUGGUAAAUUCAACAGCUCGCAGUCAAG | 0.0173 |
| GGUCACGUCUCAAUCAACUCAGUCUCCAGGGAAAUCCCUGGCAUUUUCAACAGCUCGCAGUCAAG | 0.0949 |
| GGUCACGUCUCAAUCAACUCAUUUUCCAGGGAAAGCCCUGGCUAUCUCAACAGCUCGCAGUCAAG | -0.0239 |
| GGUCACGUCUCAAUCAACUCCAUAGAGGGGGGGAAAACCCCUUUACCCUCCAAUUCAACAGCUCGCAGUCAAG | -0.263 |
| GGUCACGUCUCAAUCAACUCCAUCGAGGGGGGGAAAACCCCUUUACCCUCACCUUCAACAGCUCGCAGUCAAG | 0.27 |
| GGUCACGUCUCAAUCAACUCAACUCCAGGAGUUUACUCCUGCUUAUUCAACAGCUCGCAGUCAAG | -0.0524 |
| GGUCACGUCUCAAUCAACUCUUCGCCCAGGGAAAACCCUGGUAUAUUCAACAGCUCGCAGUCAAG | -0.263 |
| GGUCACGUCUCAAUCAACUCAUCUCCCAGGGAAAUCCCUGGCAAACUCAACAGCUCGCAGUCAAG | 0.129 |
| GGUCACGUCUCAAUCAACUCUAUUUCAGGAGUUUACUCCUGUUAUUUCAACAGCUCGCAGUCAAG | 0.0621 |
| GGUCACGUCUCAAUCAACUCAUAAGAGGGGGGGAAAACCCCUUUGCCCUCACAUUCAACAGCUCGCAGUCAAG | 0.119 |
| GGUCACGUCUCAAUCAACUCUUUUUCAGGAGUUUUCUCCUGUAUUUUCAACAGCUCGCAGUCAAG | -0.146 |
| GGUCACGUCUCAAUCAACUCAAGUCCAGGAGUUUUCUCCUGCUAAUUCAACAGCUCGCAGUCAAG | -0.0445 |
| GGUCACGUCUCAAUCAACUCAAGUCCAGGAGUUUACUCCUGCAAAUUCAACAGCUCGCAGUCAAG | 0.0126 |
| GGUCACGUCUCAAUCAACUCAUCGCCAGGAGUUUUCUCCUGUAAUUUCAACAGCUCGCAGUCAAG | 0.00468 |
| GGUCACGUCUCAAUCAACUCACUAGAGGGGGGGAAAACCCCUUUGCCCUCACACUCAACAGCUCGCAGUCAAG | 0.252 |

| Sequence | binding signal (log2 fold change) |
| --- | --- |
| GGUCACGUCUCAAUCAACUCUUCUCCAGGAGUUUACUCCUGCUAAUUCAACAGCUCGCAGUCAAG | -0.109 |
| GGUCACGUCUCAAUCAACUCUUUUUCCAGGGAAAGCCCUGGCUAUGUCAACAGCUCGCAGUCAAG | 0.31 |
| GGUCACGUCUCAAUCAACUCUAUUCCCAGGGAAACCCCUGGCAAACUCAACAGCUCGCAGUCAAG | 0.0456 |
| GGUCACGUCUCAAUCAACUCAGUCCCAGGAGUUUUCUCCUGCAAUUUCAACAGCUCGCAGUCAAG | -0.0409 |
| GGUCACGUCUCAAUCAACUCCUAAGAGGGGGGGAAAACCCCUUUACCCUCCCAUUCAACAGCUCGCAGUCAAG | 0.0891 |
| GGUCACGUCUCAAUCAACUCAGUCCCCAGGGAAAGCCCUGGCUUAUUCAACAGCUCGCAGUCAAG | 0.0159 |
| GGUCACGUCUCAAUCAACUCAAAAGAGGGGGGGAAAACCCCUUUACCCUCCGUAUCAACAGCUCGCAGUCAAG | 0.155 |
| GGUCACGUCUCAAUCAACUCUUCCGAGGGGGGGAAAACCCCUUUACCCUCUUUAUCAACAGCUCGCAGUCAAG | -0.525 |
| GGUCACGUCUCAAUCAACUCUACUCCAGGAGUUUACUCCUGCUUUUUCAACAGCUCGCAGUCAAG | 0.0187 |
| GGUCACGUCUCAAUCAACUCAUUUUCAGGAGUUUUCUCCUGUAUAUUCAACAGCUCGCAGUCAAG | -0.0694 |
| GGUCACGUCUCAAUCAACUCACUCGAGGGGGGGAAAACCCCUUUACCCUCAAUUUCAACAGCUCGCAGUCAAG | -0.264 |
| GGUCACGUCUCAAUCAACUCCCUAGAGGGGGGGAAAACCCCUUUGCCCUCAUCGUCAACAGCUCGCAGUCAAG | 0.292 |
| GGUCACGUCUCAAUCAACUCACACGAGGGGGGGAAAACCCCUUUACCCUCUUCUUCAACAGCUCGCAGUCAAG | 0.0647 |
| GGUCACGUCUCAAUCAACUCUUCAGAGGGGGGGAAAACCCCUUUGCCCUCAUAUUCAACAGCUCGCAGUCAAG | -0.138 |
| GGUCACGUCUCAAUCAACUCUACUCCAGGAGUUUUCUCCUGUAAAUUCAACAGCUCGCAGUCAAG | -0.162 |
| GGUCACGUCUCAAUCAACUCCCUAGAGGGGGGGAAAACCCCUUUACCCUCCACAUCAACAGCUCGCAGUCAAG | -0.186 |
| GGUCACGUCUCAAUCAACUCCCAAGAGGGGGGGAAAACCCCUUUACCCUCACCGUCAACAGCUCGCAGUCAAG | -0.0128 |
| GGUCACGUCUCAAUCAACUCAAUAGAGGGGGGGAAAACCCCUUUACCCUCAAAAUCAACAGCUCGCAGUCAAG | -0.255 |
| GGUCACGUCUCAAUCAACUCUUUUCCCAGGGAAAUCCCUGGUAUGUUCAACAGCUCGCAGUCAAG | 0.148 |
| GGUCACGUCUCAAUCAACUCUUUCCCCAGGGAAAUCCCUGGCAUAUUCAACAGCUCGCAGUCAAG | 0.00216 |
| GGUCACGUCUCAAUCAACUCAACUCCAGGAGUUUCCUCCUGCUUACUCAACAGCUCGCAGUCAAG | 0.271 |
| GGUCACGUCUCAAUCAACUCAUUCUCAGGAGUUUACUCCUGCUAACUCAACAGCUCGCAGUCAAG | -0.0115 |
| GGUCACGUCUCAAUCAACUCUAAAGAGGGGGGGAAAACCCCUUUACCCUCCGUAUCAACAGCUCGCAGUCAAG | -0.192 |
